Results taken from patent EP4775675A1 (Shanghai Hongcheng Biopharmaceutical Co., Ltd., dated 2026).
Numbering of substitutions follows the chain as printed. Read-outs that look alike come from different tables or passages of the source.

Tests used:
[1] = target: T1, human BDCA-2 on cells (Jurkat-hBDCA-2 cells; human pDCs; human PBMCs) (human, UniProt Q8WTT0 1-213); assay: cell-based or functional assay
T1 sequence (looked up): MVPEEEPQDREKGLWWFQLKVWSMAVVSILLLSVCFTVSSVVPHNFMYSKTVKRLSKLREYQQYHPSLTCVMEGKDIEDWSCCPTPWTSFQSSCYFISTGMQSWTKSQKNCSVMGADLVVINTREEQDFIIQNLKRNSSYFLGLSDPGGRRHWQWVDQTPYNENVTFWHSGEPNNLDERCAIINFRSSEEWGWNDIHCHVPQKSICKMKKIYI

[2] = target: T2, cynomolgus monkey BDCA-2 on cells (Jurkat-cynoBDCA-2 cells; cynomolgus monkey pDCs) (cynomolgus monkey, UniProt A0A2K5UWP4 1-212); assay: flow cytometry on Jurkat-cynoBDCA-2 cells
T2 construct: whole, on cells
T2 sequence: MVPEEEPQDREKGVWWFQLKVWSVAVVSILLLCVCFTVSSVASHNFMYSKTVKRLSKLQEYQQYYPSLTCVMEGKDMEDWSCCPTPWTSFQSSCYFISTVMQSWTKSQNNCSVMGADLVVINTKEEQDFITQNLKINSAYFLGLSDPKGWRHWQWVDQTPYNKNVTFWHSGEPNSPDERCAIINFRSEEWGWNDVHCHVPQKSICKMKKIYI

[3] = target: T1, human BDCA-2 on cells (Jurkat-hBDCA-2 …); assay: flow cytometry on Jurkat-hBDCA-2 cells
[4] = target: T3, Human BDCA-2 protein (soluble, Octet analyte) (human, UniProt Q8WTT0 45-213, limits assumed); assay: BLI (Octet Red96e), antibody on anti-human IgG sensor, human BDCA-2 protein in solution
T3 construct: Soluble protein used as analyte in BLI
T3 sequence (looked up): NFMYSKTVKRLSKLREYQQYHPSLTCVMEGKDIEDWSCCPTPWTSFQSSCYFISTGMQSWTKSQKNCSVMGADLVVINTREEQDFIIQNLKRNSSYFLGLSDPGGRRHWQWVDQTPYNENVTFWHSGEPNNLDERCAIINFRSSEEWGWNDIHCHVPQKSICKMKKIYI

[5] = target: T1, human BDCA-2 on cells (Jurkat-hBDCA-2 …); assay: cell-based or functional assay; remark: listed apart in the source
[6] = target: T4, cynomolgus monkey BDCA-2 protein (acro, CLC-C52H4) (cynomolgus monkey, UniProt A0A2K5UWP4 45-212); assay: BLI (Octet Red96e), antibody on anti-human IgG sensor, cynomolgus monkey BDCA-2 protein in solution
T4 construct: Bought soluble protein; also called cyno BDCA-2
T4 sequence: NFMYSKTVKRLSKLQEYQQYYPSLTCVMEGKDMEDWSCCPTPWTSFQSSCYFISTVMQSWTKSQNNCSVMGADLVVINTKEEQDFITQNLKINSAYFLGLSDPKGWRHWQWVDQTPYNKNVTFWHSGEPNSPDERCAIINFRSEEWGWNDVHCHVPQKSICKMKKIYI

[7] = target: T3, Human BDCA-2 protein (soluble, Octet …); assay: BLI (Octet Red96e), antibody on anti-human IgG sensor, human BDCA-2 protein in solution; remark: listed apart in the source
[8] = target: T1, human BDCA-2 on cells (Jurkat-hBDCA-2 …); assay: cell-based or functional assay; remark: listed apart in the source
[9] = target: T1, human BDCA-2 on cells (Jurkat-hBDCA-2 …); assay: flow cytometry on Jurkat-hBDCA-2 cells; remark: listed apart in the source
[10] = target: T1, human BDCA-2 on cells (Jurkat-hBDCA-2 …); assay: cell-based or functional assay; remark: listed apart in the source
[11] = target: T1, human BDCA-2 on cells (Jurkat-hBDCA-2 …); assay: flow cytometry on sorted human pDCs
[12] = target: T2, cynomolgus monkey BDCA-2 on cells …; assay: flow cytometry on Jurkat-cynoBDCA-2 cells; remark: listed apart in the source
[13] = target: T1, human BDCA-2 on cells (Jurkat-hBDCA-2 …); assay: cell-based or functional assay; remark: listed apart in the source

B1: 164C11B8_hIgG1 (chimeric antibody) (antibody)
heavy: DVILVESGGGLVKPGGSLKLSCAASGITFSTYTMSWLRQTPEKRLEWVATINSGGDNTYYPDSVKGRFTISRDNAKNNLYLQMSSLKSEDTALYYCATYRPYYYGSVLDYWGQGTTLTVSS[sequence of human IgG1 constant region omitted]
light: DIVLTQSPASLAVSLGQRATISCKASQSVDYDGNSYVNWYQQKPGQPPKLLIYGASNLESGIPDRFSGSGSGTDFTLNIHPVEEEDGATYYCQQSDEDPWTFGGGTKLEIRRTVAAPSVFIFPPSDEQLKSGTASVVCLLNNFYPREAKVQWKVDNALQSGNSQESVTEQDSKDSTYSLSSTLTLSKADYEKHKVYACEVTHQGLSSPVTKSFNRGEC
notes: Mouse variable regions on human IgG1/kappa; also called 164C11B8 chimeric antibody; Chimeric antibody 164C11B8
EC50, inhibition of immune complex-induced type I interferon (IFNα) in human pDC cells [1]: 3.6 ng/mL | EC50 [2]: 0.21 µg/mL | EC50 [3]: 0.215 µg/mL | Kd [4]: 2.17 nM | koff [4]: 0.000338 s⁻¹ | kon [4]: 156000 M⁻¹ s⁻¹ | EC50, inhibition of CpGA-induced type I interferon (IFNα) production in human PBMC cells [5]: 0.0011 µg/mL

B2: 17G6A2_hzH1L5_hIgG1 (antibody)
heavy: EVQLVESGGGLVKPGGSLRLSCAASGFTFSSYGMSWVRQAPGKGLEWVSTISSGDSYTYYPDSVKGRFTISRDNAKNSLYLQMNSLRAEDTAVYYCARQLYYSYGYYFDYWGQGTTVTVSS[sequence of human IgG1 constant region omitted]
light: DIVLTQSPASLAVSPGQRATITCRASESVSFHGTHLMHWYQQKPGQPPKLLIYAASNLESGVPARFSGSGSGTDFTLTINPVEAEDTANYYCQQSIEDPPTFGGGTKVEIKRTVAAPSVFIFPPSDEQLKSGTASVVCLLNNFYPREAKVQWKVDNALQSGNSQESVTEQDSKDSTYSLSSTLTLSKADYEKHKVYACEVTHQGLSSPVTKSFNRGEC
notes: Humanized, human IgG1/kappa (hzVH01 + hzVL05); also called 17G6A2_hzH11L5_hIgG1; 17G6A2 humanized antibody
Kd [6]: 5.7 nM | koff [6]: 0.00067 s⁻¹ | kon [6]: 120000 M⁻¹ s⁻¹ | Kd [7]: 4.4 nM | koff [7]: 0.00049 s⁻¹ | kon [7]: 111000 M⁻¹ s⁻¹ | EC50, inhibition of immune complex-induced type I interferon (IFNα) production by human pDC cells [8]: 0.9 ng/mL | EC50 [9]: 0.0311 µg/mL | EC50, inhibition of CpGA-induced type I interferon (IFNα) production in human PBMC cells [10]: 0.001 µg/mL | EC50 [11]: 0.0776 µg/mL | EC50 [12]: 0.0533 µg/mL

B3: 17G6A2_hzH1L6_hIgG1 (antibody)
heavy: B2 heavy
light: B2 light with E85N, T87A
notes: Humanized, human IgG1/kappa (hzVH01 + hzVL06)
Kd [6]: 5.6 nM | koff [6]: 0.00065 s⁻¹ | kon [6]: 110000 M⁻¹ s⁻¹ | Kd [7]: 5.9 nM | koff [7]: 0.000705 s⁻¹ | kon [7]: 120000 M⁻¹ s⁻¹ | EC50, inhibition of immune complex-induced type I interferon (IFNα) production by human pDC cells [8]: 0.7 ng/mL | EC50 [9]: 0.0553 µg/mL | EC50, inhibition of CpGA-induced type I interferon (IFNα) production in human PBMC cells [10]: 0.0014 µg/mL | EC50 [12]: 0.0997 µg/mL

B4: 17G6A2_hIgG1 (chimeric antibody) (antibody)
heavy: EVQLVESGGDLVKPGGSLKLSCAASGFTFSSYGMSWVRQTPDKRLEWVATISSGDSYTYYPDSVKGRFTISRDNAKNTLYLQMSSLKSEDTAMYYCARQLYYSYGYYFDYWGQGTTLTVSS[sequence of human IgG1 constant region omitted]
light: B2 light with P15L, T22S, G72E, T78N, N80H, A84E, T87A, N89T, Y91F, V108L
notes: Mouse variable regions on human IgG1/kappa; also called 17G6A2 chimeric antibody; Chimeric antibody 17G6A2
EC50 [2]: 0.0792 µg/mL | EC50 [3]: 0.0877 µg/mL | Kd [7]: 1.4 nM | koff [7]: 0.000263 s⁻¹ | kon [7]: 194000 M⁻¹ s⁻¹ | Kd [4]: 0.519 nM | koff [4]: 0.000142 s⁻¹ | kon [4]: 274000 M⁻¹ s⁻¹ | EC50, inhibition of CpGA-induced type I interferon (IFNα) production in human PBMC cells [5]: 0.0013 µg/mL | EC50, inhibition of immune complex-induced type I interferon (IFNα) in human pDC cells [13]: 29.2 ng/mL

B5: 164C11B8_hzH2L2_hIgG1 (antibody)
heavy: EVQLLESGGGLVQPGGSLRLSCAASGFTFSTYTMSWVRQAPGKGLEWVATINSGGDNTYYPDSVKGRFTISRDNSKNTLYLQMNSLRAEDTAVYYCATYRPYYYGSVLDYWGQGTTVTVSS[sequence of human IgG1 constant region omitted]
light: DIVMTQSPDSLAVSLGERATINCKASQSVDYDGNSYVNWYQQKPGQPPKLLIYGASNLESGIPDRFSGSGSGTDFTLTISSLQAEDVAVYYCQQSDEDPWTFGGGTKVEIKRTVAAPSVFIFPPSDEQLKSGTASVVCLLNNFYPREAKVQWKVDNALQSGNSQESVTEQDSKDSTYSLSSTLTLSKADYEKHKVYACEVTHQGLSSPVTKSFNRGEC
EC50 [9]: 0.106 µg/mL | EC50 [12]: 0.256 µg/mL

B6: 164C11B8_hzH1L2_hIgG1 (antibody)
heavy: B5 heavy with A49S
light: B5 light
EC50 [9]: 0.0775 µg/mL | EC50 [12]: 0.144 µg/mL

B7: 164C11B8_hzH1L3_hIgG1 (antibody)
heavy: B5 heavy with A49S
light: B5 light with M4L
EC50 [9]: 0.113 µg/mL | EC50 [12]: 0.193 µg/mL

B8: 164C11B8_hzH2L3_hIgG1 (antibody)
heavy: B5 heavy
light: B5 light with M4L
EC50 [9]: 0.0703 µg/mL | EC50 [12]: 0.115 µg/mL

B9: 164C11B8_hzH3L2_hIgG1 (antibody)
heavy: B5 heavy with F27I
light: B5 light
EC50 [9]: 0.112 µg/mL | EC50 [12]: 0.154 µg/mL

B10: 164C11B8_hzH3L3_hIgG1 (antibody)
heavy: B5 heavy with F27I
light: B5 light with M4L
EC50 [9]: 0.073 µg/mL | EC50 [12]: 0.0837 µg/mL

B11: 164C11B8_hzH4L2_hIgG1 (antibody)
heavy: B5 heavy with F27I, G44R
light: B5 light
EC50 [9]: 0.0611 µg/mL | EC50 [12]: 0.104 µg/mL

B12: 164C11B8_hzH4L3_hIgG1 (antibody)
heavy: B5 heavy with F27I, G44R
light: B5 light with M4L
EC50 [9]: 0.11 µg/mL | EC50 [12]: 0.16 µg/mL
